In the supplement of paper PMC12009370:
The other results are listed elsewhere or left out. Single values are uncertain, as repeats are few or missing.

Experiments:
[1] = system: IMR-32; test: drug sensitivity score (DSS), single drug with vehicle (DSS (score)); higher = more cytotoxic; extreme values may be limits of the assay; settings: 72 h; co-treatment: vehicle (DMSO)
[2] = system: SK-N-AS; test: as above; settings: 72 h; co-treatment: vehicle (DMSO)
[3] = system: SK-N-AS; test: drug sensitivity score (DSS) in combination with SL-176 (DSS (score)); higher = more cytotoxic; extreme values may be limits of the assay; settings: 72 h; co-treatment: SL-176 11.2 uM (IC25 in IMR-32)
[4] = system: IMR-32; test: as above; settings: 72 h; co-treatment: SL-176 11.2 uM (IC25 in IMR-32)
[5] = system: SK-N-AS; test: drug sensitivity score (DSS) in combination with GSK2830371 (DSS (score)); neuroblastoma lines; SL-176 and GSK2830371 are WIP1 inhibitors; higher = more cytotoxic; extreme values may be limits of the assay; settings: 72 h; co-treatment: GSK2830371 at IC25 in IMR-32
[6] = system: IMR-32; test: as above; settings: 72 h; co-treatment: GSK2830371 at IC25 in IMR-32
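Throughout, for drug sensitivity score (DSS) in combination with GSK2830371: neuroblastoma cells in 384-well plates, each compound at five concentrations, luminescence read-out, DSS derived from fitted concentration-response curve combining IC50 with minimum and maximum inhibition.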
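Throughout, for drug sensitivity score (DSS) in combination with SL-176: cells in 384-well plates, luminescence read-out, each screening drug at five concentrations, DSS derived from the fitted concentration-response curve combining IC50 with minimum and maximum inhibition.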
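Throughout, for drug sensitivity score (DSS), single drug with vehicle: 384-well screen with five concentrations per compound and a luminescence read-out, DSS computed from the fitted dose-response curve combining IC50 with minimum and maximum inhibition.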

SMILES	drug sensitivity score [1]	drug sensitivity score [2]	drug sensitivity score [3]	drug sensitivity score [4]	drug sensitivity score [5]	drug sensitivity score [6]
Cc1ccc(F)c(NC(=O)Nc2ccc(-c3cccc4[nH]nc(N)c34)cc2)c1 [Linifanib]	0	0	0	0	0	0
COc1cc2c(cc1OCCCN1CCCC1)N=C(N)C21CCC1	2.4	4.9	6.3	6.5	5.4	2.1
Cc1nc(NC(=O)N2CCC[C@H]2C(N)=O)sc1-c1ccnc(C(C)(C)C(F)(F)F)c1 [Alpelisib]	0.3	1.5	1.8	5.6	1.5	0.7
O=C(O)c1ccc(O)c2ncccc12	5	2.2	3.1	6	2.1	5
Cn1ncc(Cl)c1-c1cc(C(=O)N[C@H](CN)Cc2ccc(F)c(F)c2)oc1Cl [Uprosertib]	0.4	0	0	0.5	0	0
Cc1sc2c(c1C)C(c1ccc(Cl)cc1)=N[C@@H](CC(=O)NCCCCNC(=O)COc1cccc3c1C(=O)N(C1CCC(=O)NC1=O)C3=O)c1nnc(C)n1-2 (stereo partly specified)	20.1	1.2	2	20.2	2.3	20.3
CCN(CC)CCCC(C)Nc1c2ccc(Cl)cc2nc2ccc(OC)cc12 (stereo unspecified) [Mepacrine]	17.5	13.2	13.9	17.9	13.1	17.5
C[C@]1(c2nc3c(C(N)=O)cccc3[nH]2)CCCN1 [Veliparib]	8.7	0	0	7	0	7.6
Clc1ccc(C(c2ccccc2Cl)C(Cl)Cl)cc1 (stereo unspecified) [Mitotane]	0	0	0	0	0	0
COC(=O)N[C@@H](C)CNc1nccc(-c2cn(C(C)C)nc2-c2cc(Cl)cc(NS(C)(=O)=O)c2F)n1 [Encorafenib]	0	0.9	1.4	0	0.8	0
Oc1ccc2c(c1)CC[C@H](c1ccccc1)[C@@H]2c1ccc(OCCN2CCCC2)cc1 [Lasofoxifene]	0	0	0.6	0	1.3	0
COc1cc(Nc2c(C#N)cnc3cc(OCCCN4CCN(C)CC4)c(OC)cc23)c(Cl)cc1Cl [Bosutinib]	6.9	9.3	8.9	7.4	9.4	7.1
NC(=O)NO [Hydroxyurea]	11.9	6.6	6.1	9	6.5	10.6
CCc1cncnc1N1CCN(Cc2nc3ccc(C(F)(F)F)cc3[nH]2)CC1	2.7	0.1	2.5	2.6	0	6.3
CCN(CC)CCCC(C)Nc1ccnc2cc(Cl)ccc12 (stereo unspecified) [Chloroquine]	10	7.4	7.1	9.7	8.5	12.1
N[C@@H]1CCCN(c2c(/C=C3\SC(=O)NC3=O)cccc2-c2ccccc2)C1	8.9	0.9	0.1	12.5	1.3	13
Cc1cc(Nc2ncc(Cl)c(Nc3ccccc3S(=O)(=O)C(C)C)n2)c(OC(C)C)cc1C1CCNCC1 [Ceritinib]	0	2.6	4.2	7.5	3.1	0
CC(C)C[C@H](NC(=O)CNC(=O)c1cc(Cl)ccc1Cl)B(O)O [Ixazomib]	18.1	12.2	12.9	14.8	12.7	17.9
C=CC(=O)N1CC/C(=C\c2ccc(F)c([N+](=O)[O-])c2)C(=O)/C(=C/c2ccc(F)c([N+](=O)[O-])c2)C1	25.3	26.3	24.9	28.1	26.2	26.9
CO[C@H]1C[C@@H]2CC[C@@H](C)[C@@](O)(O2)C(=O)C(=O)N2CCCC[C@H]2C(=O)O[C@H]([C@H](C)C[C@@H]2CC[C@@H](O)[C@H](OC)C2)CC(=O)[C@H](C)/C=C(\C)[C@@H](O)[C@@H](OC)C(=O)[C@H](C)C[C@H](C)/C=C/C=C/C=C/1C [Sirolimus]	13.7	6	5.7	3.2	7.2	6.5
C=C1C[C@@H]2CC[C@@]34C[C@H]5O[C@H]6[C@@H](O3)[C@H]3O[C@H](CC[C@@H]3O[C@H]6[C@H]5O4)CC(=O)C[C@@H]3[C@@H](OC)[C@@H](C[C@H](O)CN)O[C@H]3C[C@H]3O[C@@H](CC[C@@H]1O2)C[C@@H](C)C3=C [Eribulin]	41.6	30.3	29	39.5	30.2	42.4

SMILES	drug sensitivity score [1]	drug sensitivity score [2]	drug sensitivity score [3]	drug sensitivity score [4]	drug sensitivity score [5]	drug sensitivity score [6]
CC(C)(C#N)c1cc(Cn2cncn2)cc(C(C)(C)C#N)c1 [Anastrozole]	0	0	0	0	0	0
Nc1nc(OCc2cc(Br)cs2)c2[nH]cnc2n1 [Lomeguatrib]	0	0	0	0	0	0
CC(C)NC[C@@H](C(=O)N1CCN(c2ncnc3c2[C@H](C)C[C@H]3O)CC1)c1ccc(Cl)cc1 [Ipatasertib]	0.3	2.7	2	1.9	2.5	3.7
COc1cccc(-c2ccc(NC(=O)C3=C(C(=O)O)CCC3)c(F)c2)c1 [Vidofludimus]	7.8	0.9	1.2	4.6	1.2	7.4
Cc1c2oc3c(C)ccc(C(=O)N[C@@H]4C(=O)N[C@H](C(C)C)C(=O)N5CCC[C@H]5C(=O)N(C)CC(=O)N(C)[C@@H](C(C)C)C(=O)O[C@@H]4C)c3nc-2c(C(=O)N[C@@H]2C(=O)N[C@H](C(C)C)C(=O)N3CCC[C@H]3C(=O)N(C)CC(=O)N(C)[C@@H](C(C)C)C(=O)O[C@@H]2C)c(N)c1=O [Dactinomycin]	44.5	26.3	26.6	42.2	27.2	43.3
Cn1ncnc1[C@H]1c2n[nH]c(=O)c3cc(F)cc(c23)N[C@@H]1c1ccc(F)cc1 [Talazoparib]	27	3.1	1.5	27.9	1.6	32.6
COc1cc2nccc(Oc3ccc(NC(=O)NC4CC4)c(Cl)c3)c2cc1C(N)=O [Lenvatinib]	0	0	0	1.2	0	1.3
COc1cccc2c1C(=O)c1c(O)c3c(c(O)c1C2=O)C[C@@](O)(C(C)=O)C[C@@H]3O[C@H]1C[C@H](N)[C@H](O)[C@H](C)O1 [Daunorubicin]	21.2	9.1	8.1	21.9	9.3	24
C=CC(=O)N1CCC[C@@H](n2nc(-c3ccc(Oc4ccccc4)cc3)c3c(N)ncnc32)C1 [Ibrutinib]	0	0	0	0	0	0
CNC(=O)c1ccccc1Sc1ccc2c(/C=C/c3ccccn3)n[nH]c2c1 [Axitinib]	17.7	5.3	1.7	10.5	5.7	17.7
COCCNCc1ccc(-c2cc3nccc(Oc4ccc(NC(=S)NC(=O)Cc5ccc(F)cc5)cc4F)c3s2)nc1 [Glesatinib]	3.6	1.1	0.9	5.4	0.6	4.8
CCCCCCCCc1ccc(CCC(N)(CO)CO)cc1 [Fingolimod]	7	6.7	7.6	7.2	8.2	4.9
Cc1ccc(NC(=O)c2ccc(CN3CC[C@H](N(C)C)C3)c(C(F)(F)F)c2)cc1Nc1nccc(-c2cncnc2)n1 [Bafetinib]	0	0.3	0.9	0	1	0
CCCCc1nc2cc(/C=C/C(=O)NO)ccc2n1CCN(CC)CC [Pracinostat]	23.6	17.5	17	22.1	17.5	23.9
O=C(O)C(=O)O.[NH-][C@@H]1CCCC[C@H]1[NH-].[Pt+2] [Oxaliplatin]	22.1	5.7	3.5	21.5	6	28.8
CN[C@@H](C)C(=O)N[C@H]1CN(C(=O)CC(C)C)CC[C@H]2CC[C@@H](C(=O)NC(c3ccccc3)c3ccccc3)N2C1=O	0	0	0	0	0.1	0
CCOc1cc2ncc(C#N)c(Nc3ccc(OCc4ccccn4)c(Cl)c3)c2cc1NC(=O)/C=C/CN(C)C [Neratinib]	0.6	1.4	1.4	0.3	1.5	0.2
CC(C)(C)c1cc(NC(=O)Nc2ccc(-c3cn4c(n3)sc3cc(OCCN5CCOCC5)ccc34)cc2)no1 [Quizartinib]	4.9	3.7	4.3	4.5	5	2.9
CC[C@@H]1CN(C(=O)NCC(F)(F)F)C[C@@H]1c1cnc2cnc3[nH]ccc3n12 [Upadacitinib]	0	0	0	0	0	0
Nc1cc(COc2c(Cl)cc(C[C@H](N)C(=O)O)cc2Cl)c2oc(-c3ccccc3)nc2c1	0	0	0	0.6	0.2	0.1
